These are yes or no findings as the source states them, for the method shown. Some binding calls cover weakened binding; strength is not graded here.
Tests used:
[1] = molecular target: full-length MCM9 (1-1143) BRCv- (F687A/R688A) in pGBKT7 (yeast two-hybrid fusion) (human) (UniProt Q9NXL9); assay: two-hybrid; yeast strain SFY526; MCM9 constructs in pGBKT7, RAD51 in pGADT7; grown on SD/-Trp/-Leu at 30 °C, colony-lift filter beta-galactosidase (X-gal) assay
[2] = molecular target: MCM9 C-term (620-1143) BRCv- (F687A/R688A) in pGBKT7 (yeast two-hybrid fusion) (human) (UniProt Q9NXL9); assay: as above
[3] = molecular target: full-length MCM9 (1-1143) in pGBKT7 (yeast two-hybrid fusion) (human) (UniProt Q9NXL9); assay: as above
[4] = molecular target: MCM9 C-term (620-1143) in pGBKT7 (yeast two-hybrid fusion) (human) (UniProt Q9NXL9); assay: as above
GST-tagged RAD51 = GST-tagged RAD51 (UniProt Q06609); assay: pull-down; GST-RAD51 (4 uM) bound to glutathione agarose on ice, equal molar purified MCM9 (643-900) added for 30 min; at least seven washes with 20 mM HEPES pH 7.5, 75 mM NaCl, 0.1 mM EDTA, 1 mM BME, 10% glycerol; eluted with 10 mM reduced glutathione; SDS-PAGE, Coomassie; both purified

Chains of the proteins cited; added tags and fusions are not shown. Lines headed by an entry give the natural chain unless they say otherwise; changes in a name come on top. Residues count along the entry.
UniProt Q9NXL9: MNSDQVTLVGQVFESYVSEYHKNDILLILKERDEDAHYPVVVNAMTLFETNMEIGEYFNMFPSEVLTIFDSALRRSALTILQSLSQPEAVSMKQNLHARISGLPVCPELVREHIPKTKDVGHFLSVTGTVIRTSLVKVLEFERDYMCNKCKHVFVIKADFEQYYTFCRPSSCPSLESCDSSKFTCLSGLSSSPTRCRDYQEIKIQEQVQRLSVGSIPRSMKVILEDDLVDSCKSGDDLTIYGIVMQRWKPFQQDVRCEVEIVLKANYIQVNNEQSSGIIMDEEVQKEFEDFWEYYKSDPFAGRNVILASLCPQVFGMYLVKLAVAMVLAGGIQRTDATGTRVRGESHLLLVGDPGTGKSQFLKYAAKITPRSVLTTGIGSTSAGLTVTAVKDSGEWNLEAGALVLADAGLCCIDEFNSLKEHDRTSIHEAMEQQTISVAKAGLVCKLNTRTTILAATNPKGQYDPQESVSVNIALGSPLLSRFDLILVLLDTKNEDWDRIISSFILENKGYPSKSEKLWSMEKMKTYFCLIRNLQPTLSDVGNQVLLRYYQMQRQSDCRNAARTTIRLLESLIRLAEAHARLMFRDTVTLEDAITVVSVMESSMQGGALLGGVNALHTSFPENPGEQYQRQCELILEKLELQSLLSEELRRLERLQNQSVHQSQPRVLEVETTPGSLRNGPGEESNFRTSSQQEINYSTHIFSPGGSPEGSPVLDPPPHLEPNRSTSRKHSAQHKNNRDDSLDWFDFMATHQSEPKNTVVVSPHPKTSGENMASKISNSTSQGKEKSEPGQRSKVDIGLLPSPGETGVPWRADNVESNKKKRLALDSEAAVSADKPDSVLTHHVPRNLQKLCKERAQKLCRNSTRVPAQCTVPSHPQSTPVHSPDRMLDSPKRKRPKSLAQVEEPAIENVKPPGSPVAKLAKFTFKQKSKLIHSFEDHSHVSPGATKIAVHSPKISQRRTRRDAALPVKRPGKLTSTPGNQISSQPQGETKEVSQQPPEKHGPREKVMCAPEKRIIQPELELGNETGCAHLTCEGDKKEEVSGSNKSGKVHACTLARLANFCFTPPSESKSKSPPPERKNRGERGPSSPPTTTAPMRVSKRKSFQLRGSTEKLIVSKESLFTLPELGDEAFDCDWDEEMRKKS
MCM9 C-term (620-1143) in pGBKT7 (yeast two-hybrid fusion): residues 620-1143 of Q9NXL9
MCM9 (643-900), C-terminal extension (CTE) truncation: residues 643-900 of Q9NXL9
UniProt Q06609: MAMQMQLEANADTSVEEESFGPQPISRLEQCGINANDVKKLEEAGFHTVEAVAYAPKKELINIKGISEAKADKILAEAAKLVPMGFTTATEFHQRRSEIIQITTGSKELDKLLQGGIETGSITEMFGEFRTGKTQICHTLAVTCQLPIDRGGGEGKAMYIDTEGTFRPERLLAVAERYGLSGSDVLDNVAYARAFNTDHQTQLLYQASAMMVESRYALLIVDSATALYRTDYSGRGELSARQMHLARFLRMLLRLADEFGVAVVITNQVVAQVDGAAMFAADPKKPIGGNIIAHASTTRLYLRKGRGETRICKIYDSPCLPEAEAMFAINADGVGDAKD

Row | binding [1] | binding [2] | binding [3] | binding [4] | binding (GST-tagged RAD51) | Substance
1 | no binding | no binding | binds | binds |  | RAD51 in pGADT7 (yeast two-hybrid fusion) (from UniProt Q06609 1-339)
2 |  |  |  |  | binds | MCM9 (643-900), C-terminal extension (CTE) truncation (from UniProt Q9NXL9-1 643-900) (domain or fragment)
